Results from the antibiotic and cytotoxicity screens of Wong et al. (2023).
Some of the results follow.

Tests used:
HSkMC = human skeletal muscle cells; test: cytotoxicity call (relative viability < 0.9); conditions: 10 µM
HepG2 = test: cytotoxicity call (relative viability < 0.9); conditions: 10 µM
S. aureus RN4220 = test: growth inhibition call (relative growth <= 0.2); conditions: 50 µM

| SMILES | cytotoxicity call (HSkMC) | cytotoxicity call (HepG2) | growth inhibition call (S. aureus RN4220) |
| --- | --- | --- | --- |
| COc1cccc(C#Cc2cnc3c(c2)C(=O)N([C@H](C)CO)C[C@@H](C)[C@H](CN(C)C(=O)C2CCC2)O3)c1 | inactive | inactive | inactive |
| C[C@H](CO)N1C[C@H](C)[C@@H](CN(C)CC2CCCCC2)OCCCC[C@H](C)Oc2ccc(NS(=O)(=O)c3ccccc3)cc2C1=O | inactive | inactive | inactive |
| C[C@@H]1CN([C@H](C)CO)C(=O)c2cc(NC(=O)CCC(F)(F)F)ccc2O[C@@H]1CN(C)S(=O)(=O)c1cn(C)cn1 | inactive | inactive | inactive |
| Cc1noc(C)c1S(=O)(=O)Nc1ccc2c(c1)C(=O)N([C@@H](C)CO)C[C@H](C)[C@@H](CN(C)C(=O)Nc1ccc3c(c1)OCO3)O2 | inactive | inactive | inactive |
| Cc1cc2c(cc1C)N=C(C(F)(F)F)CC(c1cccs1)=N2 | inactive | inactive | inactive |
| Cc1cc(-c2cccs2)cc(C)n1 | inactive | inactive | inactive |
| COc1ccc(CN(C)C[C@@H]2OCCCC[C@@H](C)Oc3ccc(NS(=O)(=O)c4ccc(OC)cc4)cc3C(=O)N([C@H](C)CO)C[C@@H]2C)cc1 | inactive | inactive | inactive |
| Cc1ccc(C(=O)NCCN2CCNC2=O)cc1 | inactive | inactive | inactive |
| C[C@@H]1CN([C@H](C)CO)C(=O)c2cc(NC(=O)c3ccccc3)ccc2O[C@@H](C)CCCCO[C@H]1CN(C)Cc1ccccc1 | inactive | active | inactive |
| CCCC(=O)Nc1ccc2c(c1)C(=O)N(C)C[C@@H](OC)[C@@H](C)CN(Cc1ccc(-c3ccccn3)cc1)[C@H](C)CO2 | inactive | inactive | inactive |
| C[C@@H]1CCCCO[C@@H](CN(C)S(=O)(=O)c2cn(C)cn2)[C@@H](C)CN([C@@H](C)CO)C(=O)c2cc(NC(=O)Nc3cccc4ccccc34)ccc2O1 | inactive | inactive | inactive |
| CCCC#Cc1cnc2c(c1)C(=O)N([C@H](C)CO)C[C@H](C)[C@H](CN(C)S(=O)(=O)c1cccc(OC)c1)O2 | inactive | inactive | inactive |
| C[C@@H]1CN([C@@H](C)CO)S(=O)(=O)c2ccc(-c3cncnc3)cc2O[C@H]1CN(C)C(=O)Cc1ccccc1 | inactive | inactive | inactive |
| C[C@@H]1CCCCO[C@H](CN(C)S(C)(=O)=O)[C@@H](C)CN([C@@H](C)CO)C(=O)c2cc(NS(C)(=O)=O)ccc2O1 | inactive | inactive | inactive |
| CCCNC(=O)N1C[C@@H](O)COC[C@@H]2O[C@@H](CC(=O)N3CCOCC3)CC[C@H]21 | inactive | inactive | inactive |
| Brc1cccc2ocnc12 | inactive | inactive | inactive |
| Cc1cc(C(=O)Nc2cccc3c2O[C@H](CN(C)S(C)(=O)=O)[C@@H](C)CN([C@H](C)CO)C3=O)n(C)n1 | inactive | inactive | inactive |
| C[C@H]1CN([C@@H](C)CO)C(=O)Cc2cc(NC(=O)Cc3ccccc3)ccc2O[C@@H]1CN(C)C(=O)Nc1ccc(C(F)(F)F)cc1 | inactive | inactive | inactive |
| [O-][NH2+]N(CCO)CCO | inactive | inactive | inactive |
| O=[N+]([O-])c1cc(N(CCO)CCO)ccc1NCCO | inactive | inactive | inactive |
| COc1ccc(cc1)CN1C[C@]2(CN(C2)C(=O)C2CCOCC2)c2c(n(c3cc(ccc23)OC)C)[C@H]1CO | inactive | inactive | inactive |

| SMILES | cytotoxicity call (HSkMC) | cytotoxicity call (HepG2) | growth inhibition call (S. aureus RN4220) |
| --- | --- | --- | --- |
| O=C(C[C@@H]1CC[C@@H]2[C@H](COC[C@H](O)CN2C(=O)Nc2cc(Cl)cc(Cl)c2)O1)N1CCOCC1 | inactive | inactive | active |
| Cc1cc(O[C@@H](CCC(F)(F)F)c2ccc(C(=O)NCCC(=O)O)cc2)cc(C)c1-c1ccc(C(C)(C)C)cc1 | active | inactive | active |
| COc1ccc(S(=O)(=O)Nc2ccc3c(c2)C(=O)N([C@H](C)CO)C[C@H](C)[C@@H](CN(C)C(=O)Nc2cccc4ccccc24)OCCCC[C@@H](C)O3)cc1 | inactive | inactive | inactive |
| COc1ccc(CN(C)C[C@H]2OCCCC[C@H](C)Oc3ccc(NS(=O)(=O)c4ccc(C)cc4)cc3C(=O)N([C@@H](C)CO)C[C@H]2C)cc1 | inactive | inactive | inactive |
| O=C(C[C@@H]1C[C@H]2c3cc(NC(=O)Cc4ccncc4)ccc3O[C@H]2[C@@H](CO)O1)NCc1ccc2c(c1)OCO2 | inactive | inactive | inactive |
| Cc1noc(C)c1S(=O)(=O)N(C)C[C@@H]1Oc2ccc(N(C)C)cc2CC(=O)N([C@H](C)CO)C[C@H]1C | inactive | inactive | inactive |
| C[C@H](CO)N1C[C@H](C)[C@H](CN(C)Cc2ccccc2)OCCCC[C@H](C)Oc2ccc(NC(=O)Nc3ccc(F)cc3)cc2C1=O | inactive | active | inactive |
| C[C@H](CO)N1C[C@H](C)[C@@H](CN(C)S(=O)(=O)c2ccc(F)cc2)Oc2ncc(-c3cccc(C(=O)N(C)C)c3)cc2C1=O | inactive | inactive | inactive |
| C[C@H](CO)N1C[C@H](C)[C@H](CN(C)Cc2cccc(C(F)(F)F)c2)OCc2ccccc2-c2c(n(C)c3ccccc23)C1=O | active | inactive | inactive |
| C[C@H](CO)N1C[C@H](C)[C@@H](CN(C)Cc2ccc3c(c2)OCO3)OCCCC[C@H](C)Oc2ccc(NC(=O)Nc3ccccc3)cc2C1=O | inactive | inactive | inactive |
| C[C@@H]1CN([C@@H](C)CO)C(=O)c2cc(NS(=O)(=O)c3cn(C)cn3)ccc2O[C@@H]1CN(C)C(=O)Nc1ccc2c(c1)OCO2 | inactive | inactive | inactive |
| Cc1noc(C)c1S(=O)(=O)Nc1ccc2c(c1)C(=O)N([C@@H](C)CO)C[C@@H](C)[C@@H](CN(C)C(=O)Nc1cccc3ccccc13)OCCCC[C@H](C)O2 | inactive | inactive | inactive |
| COCC(=O)Nc1ccc2c(c1)C(=O)N(C)[C@H]1CC[C@H](CC(=O)NCc3ccc(OC)cc3)O[C@@H]1CO2 | inactive | inactive | inactive |
| COc1ccc(S(=O)(=O)N(C)C[C@@H]2Oc3ccc(NC(=O)Nc4cc(Cl)cc(Cl)c4)cc3CC(=O)N([C@@H](C)CO)C[C@@H]2C)cc1Cl | active | active | inactive |
| COCC#Cc1ccc2c(c1)O[C@@H](CN(C)C(=O)CN(C)C)[C@H](C)CN([C@@H](C)CO)S2(=O)=O | inactive | inactive | inactive |
| CCCN(C)C[C@@H]1OCCCC[C@H](C)Oc2ccc(NC(=O)c3ccccc3)cc2C(=O)N([C@H](C)CO)C[C@@H]1C | inactive | inactive | inactive |
| CC(C)NC(=O)Nc1ccc2c(c1)C(=O)N([C@@H](C)CO)C[C@H](C)[C@@H](CN(C)S(C)(=O)=O)OCCCC[C@@H](C)O2 | inactive | inactive | inactive |
| C[C@@H]1CN([C@@H](C)CO)C(=O)Cc2cc(NC(=O)CCCN(C)C)ccc2O[C@H]1CN(C)S(C)(=O)=O | inactive | inactive | inactive |
| C[C@@H]1CN([C@@H](C)CO)C(=O)CCCn2cc(nn2)CO[C@@H]1CN(C)C(=O)Nc1ccc(N2CCN(C)CC2)cc1 | inactive | inactive | inactive |
| O=C(CCCCCCC(=O)N/N=C/[C@H](O)[C@@H](O)[C@H](O[C@@H]1O[C@H](CO)[C@H](O)[C@H](O)[C@H]1O)[C@H](O)CO)NO | inactive | inactive | inactive |
| Nc1cc(=O)[nH]c(=O)n1Cc1ccccc1 | inactive | inactive | inactive |
